The supplement of paper PMC8728848
The other results are listed elsewhere or left out.

What was measured:
Assay in all cases: glycan array binding signal (z-score within array); higher = stronger binding
Settings in all cases: glycan notation: IUPAC condensed, linker removed
[1] = biological target: Gal(b1-3)GlcNAc(b1-2)Man(a1-3)[Gal(b1-3)GlcNAc(b1-2)Man(a1-6)]Man(b1-4)GlcNAc(b1-4)GlcNAc
In short: (§1)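 The binding signal is a Z-score computed within each array. Data were drawn from 3228 arrays in the Consortium for Functional Glycomics database, restricted to those with a known protein sequence. Scores were averaged over arrays of the same protein sequence at different concentrations or buffers, and over linkers, and negative values can be taken as non-binding.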

[2] = biological target: Gal(b1-3)GlcNAc(b1-2)Man(a1-3)[Gal(b1-3)GlcNAc(b1-2)Man(a1-6)]Man(b1-4)GlcNAc(b1-4)[Fuc(a1-6)]GlcNAc
In short: as §1

[3] = biological target: Gal(b1-3)GlcNAc(b1-2)Man(a1-3)[GlcNAc(b1-4)][Gal(b1-3)GlcNAc(b1-2)Man(a1-6)]Man(b1-4)GlcNAc(b1-4)GlcNAc
In short: as §1

[4] = biological target: Gal(b1-3)GlcNAc(b1-2)[Gal(b1-3)GlcNAc(b1-6)]Man(a1-6)[Gal(b1-3)GlcNAc(b1-2)Man(a1-3)]Man(b1-4)GlcNAc(b1-4)GlcNAc
In short: as §1

[5] = biological target: Gal(b1-3)GlcNAc(b1-3)Gal(b1-3)GlcNAc
In short: as §1

[6] = biological target: Gal(b1-3)GlcNAc(b1-3)Gal(b1-4)Glc
In short: as §1

[7] = biological target: Gal(b1-3)GlcNAc(b1-3)Gal(b1-4)GlcNAc
In short: as §1

[8] = biological target: Gal(b1-3)GlcNAc(b1-3)Gal(b1-4)GlcNAc(b1-2)Man(a1-3)[Gal(b1-3)GlcNAc(b1-3)Gal(b1-4)GlcNAc(b1-2)Man(a1-6)]Man(b1-4)GlcNAc(b1-4)GlcNAc
In short: as §1

[9] = biological target: Gal(b1-3)GlcNAc(b1-3)Gal(b1-4)GlcNAc(b1-2)[Gal(b1-3)GlcNAc(b1-3)Gal(b1-4)GlcNAc(b1-6)]Man(a1-6)[Gal(b1-3)GlcNAc(b1-3)Gal(b1-4)GlcNAc(b1-2)Man(a1-3)]Man(b1-4)GlcNAc(b1-4)[Fuc(a1-6)]GlcNAc
In short: as §1

[10] = biological target: Gal(b1-3)GlcNAc(b1-3)Gal(b1-4)GlcNAc(b1-3)Gal(b1-4)GlcNAc(b1-2)[Gal(b1-3)GlcNAc(b1-3)Gal(b1-4)GlcNAc(b1-3)Gal(b1-4)GlcNAc(b1-6)]Man(a1-6)[Gal(b1-3)GlcNAc(b1-3)Gal(b1-4)GlcNAc(b1-3)Gal(b1-4)GlcNAc(b1-2)Man(a1-3)]Man(b1-4)GlcNAc(b1-4)[Fuc(a1-6)]GlcNAc
In short: as §1

[11] = biological target: Gal(b1-3)GlcNAc(b1-3)Gal(b1-4)GlcNAc(b1-6)[Gal(b1-3)GlcNAc(b1-3)]Gal(b1-4)Glc
In short: as §1

[12] = biological target: Gal(b1-3)GlcNAc(b1-3)Gal(b1-4)[Fuc(a1-3)]GlcNAc
In short: as §1

[13] = biological target: Gal(b1-3)GlcNAc(b1-3)Gal(b1-4)[Fuc(a1-3)]GlcNAc(b1-6)[Gal(b1-3)GlcNAc(b1-3)]Gal(b1-4)Glc
In short: as §1

[14] = biological target: Gal(b1-3)GlcNAc(b1-3)GalNAc
In short: as §1

[15] = biological target: Gal(b1-3)GlcNAc(b1-6)Gal(b1-4)GlcNAc
In short: as §1

[16] = biological target: Gal(b1-3)GlcNAc(b1-6)GalNAc
In short: as §1

[17] = biological target: Gal(b1-3)GlcNAc(b1-6)[Gal(b1-3)]GalNAc
In short: as §1

Gal(b1-3)GlcNAc6S = biological target: Gal(b1-3)GlcNAc6S
In short: as §1

[18] = biological target: Gal(b1-3)[Fuc(a1-4)]GlcNAc
In short: as §1

[19] = biological target: Gal(b1-3)[Fuc(a1-4)]GlcNAc(b1-2)Man
In short: as §1

[20] = biological target: Gal(b1-3)[Fuc(a1-4)]GlcNAc(b1-2)Man(a1-3)[Gal(b1-3)[Fuc(a1-4)]GlcNAc(b1-2)Man(a1-6)]Man(b1-4)GlcNAc(b1-4)[Fuc(a1-6)]GlcNAc
In short: as §1

[21] = biological target: Gal(b1-3)[Fuc(a1-4)]GlcNAc(b1-3)Gal(b1-3)[Fuc(a1-4)]GlcNAc
In short: as §1

[22] = biological target: Gal(b1-3)[Fuc(a1-4)]GlcNAc(b1-3)Gal(b1-4)[Fuc(a1-3)]GlcNAc
In short: as §1

[23] = biological target: Gal(b1-3)[Fuc(a1-4)]GlcNAc(b1-6)GalNAc
In short: as §1

[24] = biological target: Gal(b1-3)[GlcNAc(b1-6)]GalNAc
In short: as §1

[25] = biological target: Gal(b1-3)[Neu5Ac(a2-6)]GalNAc
In short: as §1

[26] = biological target: Gal(b1-3)[Neu5Ac(a2-6)]GlcNAc(b1-4)Gal(b1-4)Glc
In short: as §1

[27] = biological target: Gal(b1-3)[Neu5Ac(b2-6)]GalNAc
In short: as §1

Gal(b1-4)Gal = biological target: Gal(b1-4)Gal
In short: as §1

[28] = biological target: Gal(b1-4)GalNAc(a1-3)[Fuc(a1-2)]Gal(b1-4)GlcNAc
In short: as §1

[29] = biological target: Gal(b1-4)GalNAc(b1-3)[Fuc(a1-2)]Gal(b1-4)GlcNAc
In short: as §1

Gal(b1-4)Glc = biological target: Gal(b1-4)Glc
In short: as §1

Gal(b1-4)Glc6S = biological target: Gal(b1-4)Glc6S
In short: as §1

Gal(b1-4)GlcNAc = biological target: Gal(b1-4)GlcNAc
In short: as §1

[30] = biological target: Gal(b1-4)GlcNAc(a1-6)Gal(b1-4)GlcNAc
In short: as §1

Gal(b1-4)GlcNAc(b1-2)Man = biological target: Gal(b1-4)GlcNAc(b1-2)Man
In short: as §1

[31] = biological target: Gal(b1-4)GlcNAc(b1-2)Man(a1-3)Man(b1-4)GlcNAc(b1-4)GlcNAc
In short: as §1

[32] = biological target: Gal(b1-4)GlcNAc(b1-2)Man(a1-3)[Gal(b1-4)GlcNAc(b1-2)Man(a1-6)]Man(b1-4)GlcNAc(b1-4)GlcNAc
In short: as §1

[33] = biological target: Gal(b1-4)GlcNAc(b1-2)Man(a1-3)[Gal(b1-4)GlcNAc(b1-2)Man(a1-6)]Man(b1-4)GlcNAc(b1-4)[Fuc(a1-6)]GlcNAc
In short: as §1

[34] = biological target: Gal(b1-4)GlcNAc(b1-2)Man(a1-3)[Gal(b1-4)GlcNAc(b1-2)Man(a1-6)][Gal(b1-4)GlcNAc(b1-4)]Man(b1-4)GlcNAc(b1-4)[Fuc(a1-6)]GlcNAc
In short: as §1

[35] = biological target: Gal(b1-4)GlcNAc(b1-2)Man(a1-3)[Gal(b1-4)GlcNAc(b1-2)Man(a1-6)][GlcNAc(b1-4)]Man(b1-4)GlcNAc(b1-4)[Fuc(a1-6)]GlcNAc
In short: as §1

[36] = biological target: Gal(b1-4)GlcNAc(b1-2)Man(a1-3)[GlcNAc(b1-2)Man(a1-6)]Man(b1-4)GlcNAc(b1-4)GlcNAc
In short: as §1

[37] = biological target: Gal(b1-4)GlcNAc(b1-2)Man(a1-3)[GlcNAc(b1-4)][Gal(b1-4)GlcNAc(b1-2)Man(a1-6)]Man(b1-4)GlcNAc(b1-4)GlcNAc
In short: as §1

[38] = biological target: Gal(b1-4)GlcNAc(b1-2)Man(a1-3)[Man(a1-6)]Man(b1-4)GlcNAc(b1-4)GlcNAc
In short: as §1

[39] = biological target: Gal(b1-4)GlcNAc(b1-2)Man(a1-6)Man(b1-4)GlcNAc(b1-4)GlcNAc
In short: as §1

B1: CFEM-PPl (Pichia pastoris), F2QPV1 (protein)
chain: AVATPPACLLACAAEVVKESSDCDALNNIQCICENEGSAIHACLESTCPDGLSSTALQSFEDVCESVGTEANLDE
[1]
  glycan array binding signal (z-score): 0.035
[2]
  glycan array binding signal (z-score): -0.192
[3]
  glycan array binding signal (z-score): -0.17
[4]
  glycan array binding signal (z-score): -0.033
[5]
  glycan array binding signal (z-score): -0.128
[6]
  glycan array binding signal (z-score): -0.184
[7]
  glycan array binding signal (z-score): -0.231
[8]
  glycan array binding signal (z-score): -0.202
[9]
  glycan array binding signal (z-score): 0.066
[10]
  glycan array binding signal (z-score): 0.051
[11]
  glycan array binding signal (z-score): 0.231
[12]
  glycan array binding signal (z-score): -0.287
[13]
  glycan array binding signal (z-score): -0.009
[14]
  glycan array binding signal (z-score): -0.197
[15]
  glycan array binding signal (z-score): 0.199
[16]
  glycan array binding signal (z-score): -0.048
[17]
  glycan array binding signal (z-score): 1.45
Gal(b1-3)GlcNAc6S
  glycan array binding signal (z-score): 0.224
[18]
  glycan array binding signal (z-score): -0.109
[19]
  glycan array binding signal (z-score): -0.114
[20]
  glycan array binding signal (z-score): -0.102
[21]
  glycan array binding signal (z-score): -0.173
[22]
  glycan array binding signal (z-score): -0.307
[23]
  glycan array binding signal (z-score): 0.18
[24]
  glycan array binding signal (z-score): 1.52
[25]
  glycan array binding signal (z-score): 8.06
[26]
  glycan array binding signal (z-score): -0.187
[27]
  glycan array binding signal (z-score): 0.483
Gal(b1-4)Gal
  glycan array binding signal (z-score): -0.302
[28]
  glycan array binding signal (z-score): -0.168
[29]
  glycan array binding signal (z-score): -0.003
Gal(b1-4)Glc
  glycan array binding signal (z-score): -0.08
Gal(b1-4)Glc6S
  glycan array binding signal (z-score): 0.326
Gal(b1-4)GlcNAc
  glycan array binding signal (z-score): 0.157
[30]
  glycan array binding signal (z-score): 1.38
Gal(b1-4)GlcNAc(b1-2)Man
  glycan array binding signal (z-score): -0.245
[31]
  glycan array binding signal (z-score): -0.158
[32]
  glycan array binding signal (z-score): -0.008
[33]
  glycan array binding signal (z-score): -0.256
[34]
  glycan array binding signal (z-score): -0.173
[35]
  glycan array binding signal (z-score): -0.177
[36]
  glycan array binding signal (z-score): -0.131
[37]
  glycan array binding signal (z-score): -0.371
[38]
  glycan array binding signal (z-score): -0.148
[39]
  glycan array binding signal (z-score): -0.286
